Data reported in the antibiotic and cytotoxicity screens of Wong et al. (2023).
This is one part of the list.

Experiments:
HSkMC = human skeletal muscle cells; assay: cytotoxicity call (relative viability < 0.9); conditions: 10 µM
HepG2 = assay: cytotoxicity call (relative viability < 0.9); conditions: 10 µM
S. aureus RN4220 = assay: growth inhibition call (relative growth <= 0.2); conditions: 50 µM

Compound	cytotoxicity call (HSkMC)	cytotoxicity call (HepG2)	growth inhibition call (S. aureus RN4220)
C[C@@H]1CN([C@@H](C)CO)C(=O)c2cccc(NC(=O)c3nc4ccccc4s3)c2O[C@H]1CN(C)Cc1ccc(-c2ccccc2)cc1	inactive	inactive	inactive
C[C@@H]1CCCCO[C@H](CN(C)Cc2ccccc2)[C@@H](C)CN([C@H](C)CO)C(=O)c2cc(NC(=O)Nc3ccc4c(c3)OCO4)ccc2O1	inactive	inactive	inactive
O=C1/C(=C/C=C/c2ccco2)CCC/C1=C\C=C\c1ccco1	inactive	inactive	inactive
COc1cc(Nc2ncc3c(n2)-c2ccc(Cl)cc2C(c2c(F)cccc2OC)=NC3)ccc1C(=O)O	active	active	inactive
C[C@@H]1CN([C@H](C)CO)C(=O)c2cc(C#CCN(C)C)cnc2O[C@H]1CN(C)C(=O)Nc1cccc(F)c1	inactive	inactive	inactive
Cc1ccc(S(=O)(=O)N[C@@H]2C=C[C@H](CC(=O)NCCN3CCCCC3)O[C@H]2CO)cc1	inactive	inactive	inactive
Cc1noc(C)c1S(=O)(=O)Nc1ccc2c(c1)CC(=O)N([C@@H](C)CO)C[C@@H](C)[C@H](CN(C)C(=O)NC1CCCCC1)O2	inactive	inactive	inactive
Cc1ccc(S(=O)(=O)Nc2ccc3c(c2)C(=O)N([C@@H](C)CO)C[C@H](C)[C@@H](CN(C)C(=O)Nc2ccc4c(c2)OCO4)OCCCC[C@H](C)O3)cc1	inactive	inactive	inactive
C[C@H](CO)N1C[C@H](C)[C@H](CN(C)S(=O)(=O)c2ccc(Cl)cc2)Oc2c(NC(=O)C3CCOCC3)cccc2C1=O	inactive	inactive	inactive
COc1ccc(NC(=O)Nc2ccc3c(c2)C(=O)N([C@@H](C)CO)C[C@H](C)[C@@H](CN(C)S(=O)(=O)c2cccs2)OCCCC[C@H](C)O3)cc1	inactive	inactive	inactive
Cc1noc(C)c1NC(=O)Nc1ccc2c(c1)CC(=O)N([C@H](C)CO)C[C@@H](C)[C@@H](CN(C)C(=O)Nc1cccc3ccccc13)O2	inactive	inactive	inactive
C[C@@H]1CCCCO[C@@H](CN(C)C(=O)NC2CCCCC2)[C@H](C)CN([C@@H](C)CO)C(=O)c2cc(NS(=O)(=O)c3cccs3)ccc2O1	inactive	inactive	inactive
C[C@H](CO)N1C[C@H](C)[C@H](CN(C)C(=O)c2ccncc2)OCCCC[C@H](C)Oc2ccc(NC(=O)NC3CCCCC3)cc2C1=O	inactive	inactive	inactive
C[C@H](CO)N1C[C@H](C)[C@H](CN(C)CC2CCCCC2)Oc2c(NC(=O)Nc3ccc(C(F)(F)F)cc3)cccc2C1=O	inactive	inactive	inactive
C[C@@H]1CN([C@@H](C)CO)S(=O)(=O)c2ccc(C#Cc3cccc(F)c3)cc2O[C@@H]1CN(C)CC1CC1	inactive	inactive	inactive
CCCN(C)C[C@@H]1OCCCC[C@@H](C)Oc2ccc(NC(=O)Nc3ccc(F)cc3)cc2C(=O)N([C@H](C)CO)C[C@H]1C	inactive	inactive	inactive
COc1ccc(S(=O)(=O)Nc2ccc3c(c2)C(=O)N([C@H](C)CO)C[C@@H](C)[C@H](CN(C)S(=O)(=O)c2ccc(OC)cc2)O3)cc1	inactive	inactive	inactive
NNC(=O)c1cc2ccccc2[nH]1	inactive	inactive	inactive
C[C@@H]1CN([C@H](C)CO)C(=O)c2cc(NC(=O)Nc3ccc(F)cc3)ccc2O[C@@H](C)CCCCO[C@H]1CN(C)Cc1ccccc1	active	active	inactive
N[C@@H](CO)c1ccccc1	inactive	inactive	inactive
O=c1ccn(C2OC(CO)C(O)C2O)c(=O)[nH]1 (stereo not drawn)	inactive	inactive	inactive
Cc1ccc(S(=O)(=O)Nc2ccc3c(c2)CC(=O)N([C@H](C)CO)C[C@H](C)[C@H](CN(C)S(=O)(=O)c2cn(C)cn2)O3)cc1	inactive	inactive	inactive
C[C@@H]1CCCCO[C@@H](CN(C)Cc2ccc(C(F)(F)F)cc2)[C@@H](C)CN([C@H](C)CO)C(=O)c2cc(NS(=O)(=O)c3cn(C)cn3)ccc2O1	inactive	inactive	inactive
Cc1ccc(S(=O)(=O)N(C)C[C@H]2Oc3ccc(NC(=O)Cn4cnnn4)cc3C(=O)N([C@@H](C)CO)C[C@@H]2C)cc1	inactive	inactive	inactive
C[C@@H]1CCCCO[C@@H](CN(C)C(=O)CCCN(C)C)[C@@H](C)CN([C@@H](C)CO)C(=O)c2cc(N(C)C)ccc2O1	inactive	inactive	inactive
COCCNC(=O)C[C@@H]1CC[C@H]2[C@@H](COC[C@@H](O)CN2C(=O)Nc2ccccc2OC)O1	inactive	inactive	inactive
